# Results taken from PubChem BioAssay AID463173 (ICCB-Longwood Screening Facility, Harvard Medical School, 2010).
# In all, about 52,000 compounds went through this assay and about 4,300 (8.3%) were called active. No stated cut-off is given here; in the data, active means survival mostly below about 52% (no sharp cut-off); inactive means mostly above about 56%. The list shows a part of the results.
# Tested on: DeltatarO mutant
# Experiment: growth inhibition of S. aureus wild type versus tarO mutant, primary screen, teichoic acid synthesis inhibitors, RN4220, OD600 (AID 463173)
# Details: OD600, 18 h, hits give low values, screened at 18.75 µg/mL (by protocol)
row,Compound,survival
1,Cc1ccc(CNC(=O)Cc2ccc(NC(=O)N3CCSc4ncccc43)cc2)cc1,inactive: 72%
2,CCc1ccccc1NC(=O)c1ccc2c(c1)nnn2C1CCCC1,inactive: 109%
3,O=C1NN(c2ccccc2)C(=O)C2C3C=CC(C4CC34)C12 (configuration not stated),inactive: 80%
4,CCCNC(=O)c1ccc(Cn2c(=O)c3cccn3c3cccnc32)cc1,inactive: 52%
5,CCN=C1Sc2nc3ccc(OCC)cc3cc2CN1CCOC,inactive: 104%
6,CCOc1ccccc1NC(=O)CN1C(=O)COc2ccc(S(=O)(=O)NC3CCCC3)cc21,inactive: 74%
7,COc1cc(Cl)c(C)cc1NC(=O)c1cnn(-c2ccc(F)cc2F)c1C1CCN(C(=O)OC(C)(C)C)CC1,inactive: 64%
8,COc1ccc2cc(CNc3ccc(C)cc3)c(=O)n(CC(=O)Nc3cccc(Cl)c3C)c2c1,inactive: 80%
9,CCOC(=O)c1cc2oc(C)cc2n1CC(=O)NC1CC1,inactive: 86%
10,Cc1ccc(-c2nnc(Nc3ccccc3)c3ccccc23)cc1S(=O)(=O)N1CCN(C)CC1,inactive: 86%
11,CCOC(=O)c1c(NC(=O)COc2ccccc2Br)sc2c1CCCCC2,active: 40%
12,O=C(CSc1nnc(-c2cccc(F)c2)c(-c2cccc(F)c2)n1)NC1CCCCC1,inactive: 73%
13,O=C(Cn1ncc2c(=O)oc3ccccc3c21)N1CCN(c2ccc(Cl)cc2)CC1,inactive: 93%
14,COc1ccc(-n2nc3c(N4CCC(C(=O)NCCc5ccccc5)CC4)nnc(C)c3c2C)cc1,inactive: 85%
15,COc1cccc(CSc2nc(-c3ccccc3F)nc3c2Cc2c(CO)cnc(C)c2O3)c1,inactive: 63%
16,COc1ccc(-c2nc(CSc3nnc(C)n4c3cc3oc(C)cc34)c(C)o2)cc1OC,inactive: 71%
17,O=C(c1cccs1)N(Cc1cccnc1)c1nc2c(F)cc(F)cc2s1,inactive: 92%
18,CCn1cc2nc(SCc3ccc(F)cc3)n(CCc3ccccc3)c(=O)c2n1,inactive: 84%
19,CCN(CCCNC(=O)c1ccc(Sc2ccc(Cl)cc2)c(NC(C)=O)c1)c1ccccc1,inactive: 70%

row,Compound,survival
1,Cc1ccc(S(=O)(=O)/N=C2\C=C(Sc3ncn[nH]3)C(=O)c3ccccc32)cc1,inactive: 77%
2,CCN(CC)S(=O)(=O)c1nnc(NC(=O)c2ccc(Br)cc2)s1,active: 44%
3,CCCNC(=O)Cn1nc(C(F)(F)F)c2c1CCC2,inactive: 97%
4,Cc1c(C(=O)N(C)C)sc2c1c(=O)n(-c1ccc(F)cc1)c(=O)n2Cc1ccccc1C#N,inactive: 76%
5,CCc1ccccc1N(C)S(=O)(=O)c1ccc2c(c1)C(C)(C)C(=O)N2C,inactive: 82%
6,Fc1ccc2c(c1)-c1c(cnc3cc(-c4ccc(Cl)cc4)nn13)CO2,inactive: 69%
7,CC(=O)N1CCc2cc(CNC(=O)Nc3ccc(Br)c(C)c3)ccc21,inactive: 87%
8,COc1cccc(NC(=O)c2csnn2)c1,inactive: 89%
9,CC(=O)Nc1ccc(NC(=O)C2CCN(c3cnccn3)CC2)cc1,inactive: 74%
10,C=Cc1ccc(Cn2ccn(-c3ccc(F)c(F)c3)c(=O)c2=O)cc1,inactive: 108%
11,COc1ccc(CCN2C(=O)c3[nH]nc(-c4ccccc4O)c3C2c2ccccc2)cc1 (configuration not stated),active: 22%
12,C=CCSc1nc2sc3c(c2c(=O)[nH]1)CC(C)(C)OC3,inactive: 116%
13,COCCNC(=S)N1CCC(C(=O)c2ccc(F)cc2)CC1,inactive: 108%
14,Cc1ccc(CNC(=O)CCc2cn(Cc3ccc(C)cc3)c3ccccc23)cc1,inactive: 68%
15,O=C(O)CN1CCCCC1,inactive: 89%
16,CCOc1ccc(-c2cc3nc(C4CCN(C(=O)OC(C)(C)C)CC4)c(C(=O)Nc4c(C)cccc4C)cn3n2)cc1,inactive: 68%
17,CC1=NN(c2ccccc2)C(=O)C1(O)C1C(=O)c2ccccc2C1=O (configuration not stated),inactive: 102%
18,CCC(=O)Nc1ccccc1-c1nc2ccccc2n(C(CC)C(=O)Nc2cccc(Cl)c2)c1=O (configuration not stated),active: 24%
19,Cc1cc(C)c(Cn2c(=O)n(CCCCC(=O)NCc3ccccc3Cl)c(=O)c3ccccc32)c(C)c1,inactive: 93%

row,Compound,survival
1,CCOC(=O)c1c(C)sc(-c2c(-c3cccc(Cl)c3)[nH]c3c2c(=O)n(C)c(=O)n3C)c1O,inactive: 113%
2,COc1ccc(NC(=O)C2=C(C)Nc3ncnn3C2c2ccc[nH]2)cc1 (configuration not stated),inactive: 94%
3,COc1ccc(NC(=O)C(=O)NCCc2csc(-c3ccc(Cl)cc3)n2)cc1OC,inactive: 86%
4,Cc1ccc2[nH]c(=O)c(CC3CC(c4ccccc4)=NN3C(=O)CCC(=O)O)cc2c1 (configuration not stated),inactive: 103%
5,COc1ccc(-c2nc3scc(CCNS(=O)(=O)c4ccc(C)cc4)n3n2)cc1,inactive: 70%
6,CCN1CCN(c2ncc3c(n2)CCN(Cc2cc(F)cc(F)c2)C3)CC1,inactive: 90%
7,COc1ccccc1NC(=O)C(=O)NCC(c1ccc2c(c1)OCO2)N1CCN(C)CC1 (configuration not stated),inactive: 74%
8,COc1ccc(S(=O)(=O)N(CC(=O)Nc2ccccc2Br)Cc2ccccc2)cc1,inactive: 59%
9,Cn1c(=NC(=O)c2ccc(S(=O)(=O)N3CCCc4ccccc43)cc2)sc2cc(F)ccc21,inactive: 60%
10,CC(C)OCCCn1c(=O)c2ccccc2n2c(-c3ccc(F)cc3)nnc12,inactive: 98%
11,CC(C)N(C(=O)Cn1nnc2c(cnn2-c2ccccc2)c1=O)C(C)C,inactive: 115%
12,Cc1cccc(C(=O)Nc2c(-c3ccccc3)nc3cc(C)ccn23)c1,active: 27%
13,Cc1ccc(Cl)cc1NC(=O)c1cnc(N2CCCCC2)c2ccccc12,inactive: 91%
14,O=C(Cn1c(SCC(=O)Nc2ccc(F)cc2)nc2ccccc21)NCc1ccc(F)cc1,inactive: 91%
15,N#Cc1ccc(C(=O)Nc2cc3nn(-c4ccccc4)nc3cc2Cl)c(F)c1,inactive: 137%
16,CC(C)Oc1ccc(C2CC(=O)N(Nc3ccccc3)C2=O)cc1 (configuration not stated),inactive: 98%
17,CCCC(=O)NCC1(N(C)C)CCCCC1,inactive: 88%
18,CCOC(=O)C1CCN(S(=O)(=O)c2cc(Br)cc3c2N(C(=O)CC)CC3)CC1,inactive: 66%
19,O=C(c1cc2nc(-c3ccccc3)cc(-c3ccccc3)n2n1)N1CCCC1,inactive: 85%
